# Test results: patent publication US11897961B2, “Anti-CD123 antibodies and conjugates and derivatives thereof” (IMMUNOGEN, INC., priority 2015, dated 2024)
# T1: CD123-expressing HNT-34 cells (Homo sapiens, UniProt P26951)
# T1 construct: endogenous in cells; host or cells: HNT-34 (acute myeloid leukemia cell line)
# T1 sequence (P26951 19-378): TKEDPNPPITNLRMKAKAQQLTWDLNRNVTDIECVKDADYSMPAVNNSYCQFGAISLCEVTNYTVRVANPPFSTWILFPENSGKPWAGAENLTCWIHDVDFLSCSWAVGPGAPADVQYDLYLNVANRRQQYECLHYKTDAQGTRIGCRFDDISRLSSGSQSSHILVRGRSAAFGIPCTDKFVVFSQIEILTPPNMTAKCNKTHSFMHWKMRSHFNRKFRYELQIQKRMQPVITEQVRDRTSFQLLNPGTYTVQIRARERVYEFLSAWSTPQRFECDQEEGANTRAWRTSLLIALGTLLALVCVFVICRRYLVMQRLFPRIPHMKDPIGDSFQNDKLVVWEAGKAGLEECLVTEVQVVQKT
# B1: huCD123-CysMab-D5 (conjugate)
# heavy: QVQLVQSGAEVKKPGASVKVSCKASGYIFTSSIMHWVRQAPGQGLEWIGYIKPYNDGTKYNEKFKGRATLTSDRSTSTAYMELSSLRSEDTAVYYCAREGGNDYYDTMDYWGQGTLVTVSS[here human IgG1 constant region with changes without letters]
# light: DIQMTQSPSSLSASVGDRVTITCRASQDINSYLSWFQQKPGKAPKTLIYRVNRLVDGVPSRFSGSGSGNDYTLTISSLQPEDFATYYCLQYDAFPYTFGQGTKVEIKRTVAAPSVFIFPPSDEQLKSGTASVVCLLNNFYPREAKVQWKVDNALQSGNSQESVTEQDSKDSTYSLSSTLTLSKADYEKHKVYACEVTHQGLSSPVTKSFNRGEC
# Columns and labels:
# [1] = system: Kasumi-3-Luc-mCh-Puro cells; assay: Kasumi-3-Luc-mCh-Puro disseminated model in NSG mice; settings: for Median Survival: i.v. days 7 and 41; for % Tumor Burden Delay (% TBD): designated BLI = vehicle group at day 45
# [2] = system: UCSD-AML1 cells; assay: In vitro cytotoxicity assay, UCSD-AML1; type: cell-based, human; settings: UCSD-AML1, EVI OX; read-out: huCD123-CysMab-D5 IC50 pMol
# [3] = system: EOL-1 cells; assay: EOL-1 subcutaneous model in athymic nude mice, second study; type: in vivo, mouse
# [4] = system: MOLM-1 cells; assay: In vitro cytotoxicity assay (WST-8), MOLM-1; settings: read-out: huCD123-CysMab-D5 IC50 pMol; MOLM-1, MDR1 and EVI1 OX
# [5] = system: EOL-1 cells; assay: EOL-1 subcutaneous model in athymic nude mice, first study; type: in vivo, mouse
# [6] = system: Namalwa cells; assay: In vitro cytotoxicity assay, Namalwa (CD123 negative); type: cell-based, human; settings: read-out: huCD123-CysMab-D5 IC50 pMol
# [7] = system: K562 cells; assay: In vitro cytotoxicity assay, K562 (CD123 negative); type: cell-based, human; settings: read-out: huCD123-CysMab-D5 IC50 pMol
# [8] = system: HNT-34 cells; assay: In vitro cytotoxicity assay (WST-8), HNT-34; settings: read-out: huCD123-CysMab-D5 IC50 pMol; HNT-34, EVI1 OX
# [9] = system: MV4-11 cells; assay: In vitro cytotoxicity assay (WST-8), MV4-11; type: cell-based, human; settings: MV4-11, FLT/ITD; read-out: huCD123-CysMab-D5 IC50 pMol
# [10] = target: T1, CD123-expressing HNT-34 cells; assay: Flow cytometry binding to HNT-34 cells; settings: FIGS. 7B and 7C
# Description: Binding affinity was tested by flow cytometry using purified antibodies. […] TF-1 cells (5×10^4 cells per sample) were incubated with varying concentrations of murine antibodies in 200 μL FACS buffer (DMEM medium supplemented with 2% normal goat serum). The cells were then pelleted, washed twice, and incubated for 1 hr with 100 μL of phycoerythrin (PE)-conjugated goat anti-mouse IgG-antibody (Jackson Laboratory). The cells were pelleted again, washed with FACS buffer and resuspended in 200 μL of PBS containing 1% formaldehyde. Samples were acquired using a FACSCalibur flow cytometer with the HTS multiwell sampler, or a FACS array flow cytometer, and analyzed using CellQuest Pro (all from BD Biosciences, San Diego, US). For each sample the geomean fluorescence intensity for FL2 was calculated and plotted against the antibody concentration in a semi-log plot. A dose-response curve was generated by non-linear regression and the EC50 value of each curve, which corresponds to the apparent dissociation constant (Kd) of each antibody, was calculated using GraphPad Prism v4 (GraphPad software, San Diego, CA).
# FIG. 5A depicts the dose-response curves for each antibody. The value for the apparent dissociation constant (Kd) of each antibody was calculated using GraphPad Prism v4 (GraphPad software, San Diego, CA).
# FIGS. 7B and 7C depict the dose-response curves for each antibody and the corresponding conjugates.
# [11] = 3 μg/kg D5 (0.240 mg/kg huCD123)
# [12] = 10 μg/kg D5 (0.80 mg/kg antibody)
molecule,measurement,setting,value
B1,% ILS,[1]; [11],50%
same,T-C,[1]; [11],35
same,Median Survival,[1]; [11],105 days
same,% T/C (median BLI),"[1]; 3 μg/kg by D5, day 27",0.25%
same,% Tumor Burden Delay (% TBD),[1]; 3 μg/kg by D5,> 65%
same,% ILS,[1]; [12],64%
same,T-C,[1]; [12],45
same,Median Survival,[1]; [12],115 days
same,% T/C (median BLI),"[1]; 10 μg/kg by D5, day 27",0.20%
same,% Tumor Burden Delay (% TBD),[1]; 10 μg/kg by D5,> 75%
same,mice with extended survival as compared to control,[1]; both 3 μg/kg and 10 μg/kg doses,6/6
same,IC50,[2],0.001 nM
same,CR,[3]; 0.5 μg/kg by D5,3/6
same,PR,[3]; 0.5 μg/kg by D5,3/6
same,Result,[3]; 0.5 μg/kg by D5,Active
same,% T/C (Day 16),"[3]; 0.5 μg/kg by D5, single i.v., day 7",11%
same,CR,[3]; 1 μg/kg by D5,6/6
same,PR,[3]; 1 μg/kg by D5,6/6
same,IC50,[4],0.12 nM
same,CR,[5]; 1 μg/kg by payload,3/6
same,PR,[5]; 1 μg/kg by payload,3/6
same,Result,[5]; 1 μg/kg by payload,Active
same,% T/C (Day 15),"[5]; 1 μg/kg by payload, single i.v., day 7",13%
same,CR,[5]; 3 μg/kg by payload,5/6
same,PR,[5]; 3 μg/kg by payload,5/6
same,IC50,[6],10 nM
same,IC50,[7],8 nM
same,IC50,[8],0.001 nM
same,IC50,[9],0.001 nM
same,effect of conjugation on binding affinity versus unconjugated antibody,[10],only moderately affected the binding affinities
